According to PubChem BioAssay AID1345083 (National Center for Advancing Translational Sciences (NCATS), 2018):
The campaign covered roughly 94,000 compounds. About 6,200 (6.6%) were called active. The shares of active, inactive and inconclusive entries below differ from those in the screen. Calls come from the whole dose curve; as a rule, active = well fitted inhibition curve with a large enough effect; inconclusive = small, poorly fitted or top-dose-only effect; inactive = flat fitted curve, though single readings scatter. Potencies beside an inconclusive call are fits to weak or partial responses and may not hold up.

experiment: Cytotoxic Profiling in HEK 293 Cell Line of Diverse Libraries Using Quantitative High-Throughput Screening; conditions: HEK 293 viability, ATP luminescence (CellTiter-Glo), 48-72 h; activity change, negative = cytotoxicity: at 115 µM (top of the series) unless noted; series mostly up to 115 µM; note: nearly all actives have a fitted effect of over 60% in size
Procedure, shortened: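 Pintool-delivered compounds were incubated with HEK 293 cells (250 cells/well) at 37 degree Celsius for 48 or 72 hr. ATP-dependent luminescence (CellTiter-Glo) then reported remaining viable cells.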
% is set by controls: 0 for no effect and ±100 for the full control effect; potency is the fitted concentration of half-maximal effect; tags give direction and shape of the fitted curve.

Structure (SMILES)	activity change, negative = cytotoxicity	Potency	outcome
COCCCn1c(C)cnc1CC1CCN(C(=O)NC2CCCCC2)CC1	inactive: -1.76%		
CC(C(=O)NCc1ccccc1)N1C(=O)COc2ccc(C(=O)COc3ccc(F)cc3)cc21 (stereo unspecified)		inconclusive: 79.4 µM [inhibitor, partial curve]	
Cc1nc(-c2c3n(c(=O)n(CC(=O)Nc4ccccc4Cl)c2=O)CCCCC3)no1		inconclusive: 3.16 µM [inhibitor, partial curve, poor fit]	
O=C1NC2(CCN(S(=O)(=O)c3ccccc3)CC2)Oc2ccccc21		inconclusive: 50.1 µM [inhibitor, partial curve, poor fit]	
CC1CCCCC1Nc1ncnc2c1CN(C1CCCNCC1)C(=O)CN2C (stereo unspecified)	inactive: -0.833%		
O=S(=O)(Cc1ccccc1F)N1CCC(Cc2nc(-c3ccncc3)n[nH]2)C1 (stereo unspecified)		inconclusive: 39.8 µM [inhibitor, full curve]	
CC(C)NC(=O)c1cn2cc(-c3ccc(F)cc3)sc2n1		inconclusive: 56.2 µM [inhibitor, full curve, poor fit]	
O=C1CCN(Cc2ccncc2)CCCC(C(=O)NCCCN2CCCc3ccccc32)CCN1 (stereo unspecified)		inconclusive: 50.1 µM [inhibitor, partial curve, poor fit]	
O=S(=O)(c1ccc(C(F)(F)F)cc1)N1CCC(C2CCNC2)CC1 (stereo unspecified)		active: 79.4 µM	
O=C(NCc1ccc(F)cc1)N1CCCC(Cc2noc(-c3ccncc3)n2)C1 (stereo unspecified)		inconclusive: 39.8 µM [inhibitor, partial curve, poor fit]	
Cc1cnc(CC2CCN(C(=O)CCc3c[nH]c4ccccc34)C2)n1CC1CC1 (stereo unspecified)		inconclusive: 100 µM [inhibitor, single point]	
O=C(c1ccc(F)cc1)N1CCCC(C(=O)N2CCC(c3nc4ncccc4[nH]3)CC2)C1 (stereo unspecified)			inactive
COCCn1nc2n(c1=O)CCN(C(=O)c1cc(F)ccc1F)CC2			inactive
CC(=O)NC1(C)CCCN(Cc2cccc(-c3cccc(F)c3)c2)C1 (stereo unspecified)		inconclusive: 100 µM [inhibitor, partial curve]	
CNC(=O)c1cc(C2CC2)nc2onc(C3CCN(C(=O)c4ccncc4)CC3)c12		inconclusive: 89.1 µM [inhibitor, single point]	
COc1ccc(CCC(=O)N2CCC3(CC2)NCCc2c3[nH]c3ccc(OC)cc23)cc1		inconclusive: 10 µM [inhibitor, full curve, poor fit]	
Cc1ccc(C(=O)N2CCCCCCNC(=O)CC2c2ccccc2)s1 (stereo unspecified)		inconclusive: 100 µM [inhibitor, single point]	
CN(C(=O)c1ccccc1F)C1CCCc2ccccc21 (stereo unspecified)		inconclusive: 89.1 µM [inhibitor, partial curve]	
COc1ccc(C(=O)NCCn2ccn3nc(-c4ccc(C)cc4C)cc3c2=O)c(C)c1		inconclusive: 28.2 µM [inhibitor, full curve]	
c1ccc(-c2nnc([C@H]3CCN(Cc4ccco4)C3)o2)cc1		inconclusive: 126 µM [inhibitor, single point]	
CN1C(=O)CO[C@H]2CCN(Cc3cccc(OC(F)(F)F)c3)CC[C@@H]21		inconclusive: 79.4 µM [inhibitor, partial curve, poor fit]	

Structure (SMILES)	activity change, negative = cytotoxicity	Potency	outcome
Cc1noc2c(-c3cccnc3NCCCn3ccnc3)cc(-c3ccccc3)nc12		active: 70.8 µM	
COc1ccc(C(=O)N2CCCCCC2c2nnc(-c3ccccc3)o2)cn1 (stereo unspecified)		inconclusive: 79.4 µM [inhibitor, partial curve]	
COc1ccc2[nH]cc(CCNC(=O)CCC3CCN(C(=O)c4ccc(C)cc4)CC3)c2c1		inconclusive: 79.4 µM [inhibitor, single point]	
CN(Cc1cnc2ccccc2c1)C(=O)c1ccc(CCC(C)(C)O)cc1		active: 39.8 µM	
COc1ccc(C(=O)N2CCC3(CC2)NC(=O)N(Cc2ccc(F)cc2)C3=O)cc1OC		inconclusive: 22.4 µM [inhibitor, full curve]	
COc1ccccc1CC(=O)N1CCCc2ncc(C(=O)NCCOc3ccccc3)cc21		inconclusive: 79.4 µM [inhibitor, partial curve, poor fit]	
CN(C(=O)c1ccc2cccc(F)c2n1)C1CCCN(CCCc2ccccc2)C1 (stereo unspecified)		inconclusive: 20 µM [inhibitor, full curve, poor fit]	
Cc1cccc(CNC(=O)Cc2ccc(N(Cc3ccccc3)C(=O)c3ccco3)cc2)c1		inconclusive: 44.7 µM [inhibitor, partial curve, poor fit]	
O=C(c1ccccc1Cl)N1CCCC(c2nn(-c3cccc(Cl)c3)c(=O)[nH]2)C1 (stereo unspecified)		active: 35.5 µM	
CC(=O)N1Cc2ccccc2CC2(CCCCN2CC2CCCC2)C1 (stereo unspecified)		inconclusive: 100 µM [inhibitor, single point]	
C=CCNC(=O)[C@@H]1Cc2cn(CC3CC3)c3cccc(c23)[C@H](CC(C)C)N1		active: 50.1 µM	
CC1=C[C@@H](CN2CCC(C(N)=O)CC2)[C@H](C(C)C)C[C@H]1Cc1nnc(-c2cncn2C)o1	inactive: -16.4%		
Cc1cc(C)c(OCC(=O)c2ccc3c(c2)N(CCCC(=O)N2CCOCC2)C(=O)CO3)c(C)c1	inactive: -23.2%		
CN1C[C@@H](NC(=O)CC(C)(C)CC(=O)O)C[C@H]1c1nc(-c2ccc3ccccc3c2)no1			inactive
O=C(OCc1ccccc1)N1CCC2(CC1)C(=NC1CCCCC1)NC(=O)N2c1cccnc1	inactive: -27.7%		
O=C(c1ccccc1OCC1CCCN(Cc2ccncc2F)C1)N1CCCC1 (stereo unspecified)	inactive: 4.29%		
O=C1c2c(nc(CNCc3cccc(F)c3)n2Cc2ccccc2)NCCN1Cc1cccc(Cl)c1		inconclusive: 50.1 µM [inhibitor, partial curve, poor fit]	
Cc1ccc(C)c(CNC(=O)C2(c3ccc(NS(C)(=O)=O)cc3)CCCCC2)c1		inconclusive: 50.1 µM [inhibitor, partial curve, poor fit]	
CCN1c2cc(C(=O)NCc3ccc(Br)cc3)ccc2C(=O)N2CCCCC21 (stereo unspecified)		inconclusive: 56.2 µM [inhibitor, partial curve, poor fit]	
O=C(C1CCOCC1)N1CCC(N2C(=O)C3(CCCC3)C2c2ccccc2)CC1 (stereo unspecified)	inactive: -5.44%		
